Where “and” joins values, the source holds several entries; their conditions need not be identical. Equal values may be shown once. Screen size: about 350,000 compounds; about 31,000 (8.9%) were called active. The inconclusive results got no clear call from the source; some entries with a clear call stand among them for comparison. Calls come from the whole dose curve; as a rule, active = well fitted inhibition curve with a large enough effect; inconclusive = small, poorly fitted or top-dose-only effect; inactive = no such curve, though single readings can be large or run the other way. Potencies of inconclusive entries are doubtful fits and often do not repeat.
Biological target: Histone-lysine N-methyltransferase EHMT2 (Homo sapiens) (UniProt Q96KQ7)
Chain of UniProt Q96KQ7 (Q96KQ7 whole entry, looked up): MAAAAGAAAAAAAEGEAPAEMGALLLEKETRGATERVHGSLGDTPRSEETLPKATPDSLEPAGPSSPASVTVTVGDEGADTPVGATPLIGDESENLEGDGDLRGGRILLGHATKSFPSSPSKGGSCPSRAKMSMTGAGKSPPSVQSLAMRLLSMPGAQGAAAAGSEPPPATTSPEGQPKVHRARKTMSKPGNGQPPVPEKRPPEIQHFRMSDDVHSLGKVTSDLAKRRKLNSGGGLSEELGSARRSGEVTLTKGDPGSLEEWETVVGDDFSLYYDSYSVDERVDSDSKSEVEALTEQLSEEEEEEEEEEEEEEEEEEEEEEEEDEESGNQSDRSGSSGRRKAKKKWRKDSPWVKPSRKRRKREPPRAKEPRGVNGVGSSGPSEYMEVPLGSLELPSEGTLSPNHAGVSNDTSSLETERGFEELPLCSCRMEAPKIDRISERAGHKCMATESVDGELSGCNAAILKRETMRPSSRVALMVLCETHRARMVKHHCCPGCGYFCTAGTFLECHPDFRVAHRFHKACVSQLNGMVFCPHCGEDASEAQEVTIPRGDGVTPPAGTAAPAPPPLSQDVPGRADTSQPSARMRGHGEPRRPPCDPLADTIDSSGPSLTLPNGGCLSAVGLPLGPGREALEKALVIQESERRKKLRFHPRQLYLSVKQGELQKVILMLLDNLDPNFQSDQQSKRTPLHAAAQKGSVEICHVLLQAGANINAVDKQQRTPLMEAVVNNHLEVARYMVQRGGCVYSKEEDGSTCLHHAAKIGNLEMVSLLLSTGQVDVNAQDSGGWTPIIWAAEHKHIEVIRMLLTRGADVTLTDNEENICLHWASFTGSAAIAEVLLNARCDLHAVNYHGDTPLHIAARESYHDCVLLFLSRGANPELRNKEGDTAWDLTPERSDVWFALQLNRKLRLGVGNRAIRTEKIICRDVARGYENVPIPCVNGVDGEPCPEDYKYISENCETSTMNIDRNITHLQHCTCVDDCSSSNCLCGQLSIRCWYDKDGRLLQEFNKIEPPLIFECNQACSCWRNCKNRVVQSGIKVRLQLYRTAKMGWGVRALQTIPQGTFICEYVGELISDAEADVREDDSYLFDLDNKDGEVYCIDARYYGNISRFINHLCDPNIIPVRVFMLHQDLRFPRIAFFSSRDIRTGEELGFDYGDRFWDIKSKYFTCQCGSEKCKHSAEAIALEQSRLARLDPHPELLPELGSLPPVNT
Test: qHTS Assay for Inhibitors of Histone Lysine Methyltransferase G9a; note: nearly all actives have a fitted effect of over 75% in size
Conditions: G9a H3K9 monomethylation, AlphaScreen, 2 h; activity, negative = inhibition: at 59 µM (top of the series) unless noted
In short: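 Enzyme 20 nM + cpd, 15 min RT; add b-H3K9 pep 500 nM / SAM 20 uM; 2 h RT; anti-H3K9me1 Ab 0.5 ug/mL + SA donor / anti-rabbit acceptor beads 20 ug/mL each, 10 min; AlphaScreen read.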
% is set by controls: 0 for no effect and ±100 for the full control effect; potency is the fitted concentration of half-maximal effect; tags give direction and shape of the fitted curve.

| SMILES | activity, negative = inhibition | Potency |
| --- | --- | --- |
| CC(=O)c1cccc(N(C(=O)CNC(=O)c2cccs2)C(C(=O)NCC2CCCO2)c2ccccc2)c1 (stereo not drawn) | inactive: 26.4% [at 102 µM] |  |
| COc1ccccc1NC(=O)CCSc1nnc(-c2ccc(O)cc2)o1 |  | inconclusive: 89.1 µM [inhibitor, partial curve, poor fit] |
| COc1cccc(-c2nnc(NC(=O)c3cccs3)s2)c1 | inactive: 14.3% |  |
| CN(C)c1ccc(C=NCC2COc3ccccc3O2)cc1 (stereo not drawn) | inactive: -0.693% [at 102 µM] |  |
| Cc1occc1-c1nnc(SCC(=O)c2c(N)n(C3CC3)c(=O)[nH]c2=O)n1C | inactive: -7.43% [at 12.7 µM] |  |
| COc1ccc(C)cc1NC1=C(Cl)C(=O)N(C2CCCCC2)C1=O |  | inconclusive: 70.8 µM [inhibitor, single point] |
| CCOc1ccc(OCC(=O)OCC(=O)N2CCN(C(=O)c3ccco3)CC2)cc1 |  | active: 31.6 µM |
| CC(C)C(=O)Nc1ccccc1-c1nc2ccccc2[nH]c1=O |  | inconclusive: 50.1 µM [inhibitor, partial curve] |
| O=C(NC1CCCCC1)C(c1ccncc1)N(Cc1ccc2c(c1)OCO2)C(=O)c1cnsn1 (stereo not drawn) |  | inconclusive: 22.4 µM [inhibitor, single point] |
| O=C(Nc1ccc(F)c(Cl)c1)N1CC=C(c2c[nH]c3ccccc23)CC1 |  | inconclusive: 10 µM [inhibitor, partial curve, poor fit] |
| CC(C)c1cc(C(=O)NCc2ccco2)no1 |  | inconclusive: 39.8 µM [inhibitor, single point] |
| COc1ccccc1CN1CCC(n2nccc2NC(=O)CCOc2ccccc2)CC1 |  | inconclusive: 3.98 µM [inhibitor, partial curve, poor fit] |
| O=C(CCn1c(=O)c2sccc2n(CC(=O)NCc2ccco2)c1=O)NCc1ccccc1 |  | inconclusive: 79.4 µM [inhibitor, single point] |
| Cc1cc(C)c(C)c(OCC(O)CN2CCN(c3ccccn3)CC2)c1 (stereo not drawn) |  | active: 79.4 µM |
| Cc1ccc(NC(=O)O/N=C/c2ccc(N(C)C)cc2)cc1 | inactive: 21.2% [at 0.501 µM] |  |
| CCCCC(CC)C1OCC(CN2CCCC2)O1 (stereo not drawn) | inactive: -5.35% |  |
| O=C(CSc1ccc(-c2ccco2)nn1)Nc1ccc(F)cc1F |  | inconclusive: 89.1 µM [inhibitor, single point] |
| Cn1cc(CN2CCC(n3nccc3NC(=O)Cc3ccccc3)CC2)cn1 | inactive: 6.93% [at 102 µM] |  |
| CNS(=O)(=O)c1cccc(C(=O)OCC(=O)Nc2ccc(OC)cc2[N+](=O)[O-])c1 |  | inconclusive: 20 µM [inhibitor, partial curve, poor fit] |
| CCOC(=O)C1CCN(CC(C)(C)NS(=O)(=O)c2ccccc2)CC1 |  | inconclusive: 31.6 µM [inhibitor, single point] |
| CC1=C(C(N)=O)C(c2ccccc2Br)n2ncnc2N1 (stereo not drawn) | inactive: -39.2% |  |
| NC(=S)Nc1ccc(Cl)c(Cl)c1 | inactive: -29.5% [at 102 µM] |  |
| CCN(C(=O)CSc1nnc(-c2ccc(F)cc2)c2ccccc12)C1CCS(=O)(=O)C1 (stereo not drawn) |  | active: 35.5 µM |
| CCC(=O)Nc1ccccc1-c1nc2ccccc2n(CC(=O)c2ccc(C)cc2)c1=O |  | inconclusive: 39.8 µM [inhibitor, partial curve, poor fit] |
| CC12CCC(C(=O)N(CCCCN3CCN(Cc4ccccc4)CC3)C1=O)C2(C)C (stereo not drawn) |  | active: 56.2 µM |

| SMILES | activity, negative = inhibition | Potency |
| --- | --- | --- |
| Cn1c(N2CCN(C(=O)Nc3ccc(C(F)(F)F)cc3)CC2)nc2ccccc21 | inactive: -27% [at 2.33 µM] |  |
| O=C(COC(=O)c1n[nH]c2ccccc12)NC(=O)NC1CCCCC1 |  | inconclusive: 89.1 µM [inhibitor, single point] |
| O=C(CN1CCCc2ccccc21)NCc1ccccc1Cl |  | active: 44.7 µM |
| COc1ccc(/C=C2\SC(=S)N(CCC(=O)N(CCO)Cc3ccccc3)C2=O)cc1OC | inactive: -8.03% [at 102 µM] |  |
| Cc1ccc(C(=O)OCC(=O)c2c[nH]c3ccccc23)cc1S(=O)(=O)N1CCOCC1 |  | inconclusive: 50.1 µM [inhibitor, partial curve] |
| CCc1ccc(OCC(=O)NNC(=O)c2ccc(NC(=O)C3CC3)cc2)cc1 |  | inconclusive: 79.4 µM [inhibitor, single point] |
| COc1cccc(C(=O)NCCS(=O)(=O)NC2CCCC2)c1 |  | active: 31.6 µM |
| c1cncc(-c2nc(-c3cccs3)cs2)c1 |  | inconclusive: 50.1 µM [inhibitor, partial curve] |
| Cc1[nH][nH]c(=O)c1C(c1ccc(-c2ccc(C(=O)O)cc2)o1)c1c(C)[nH][nH]c1=O |  | active: 3.55 µM |
| O=C(NNS(=O)(=O)c1ccc(F)cc1)c1ccc([N+](=O)[O-])cc1Cl |  | inconclusive: 1 µM [inhibitor, partial curve, poor fit] |
| O=C(Nn1cnnc1)c1ccncc1 |  | inconclusive: 89.1 µM [inhibitor, single point] |
| c1coc(CNC2CCCCC2)c1 |  | inconclusive: 11.2 µM [inhibitor, partial curve, poor fit] |
| CCOC(=O)c1sc(N)nc1C(C)(C)C |  | active: 15.8 µM |
| COc1ccc(C(NCC(=O)Nc2c(C)cccc2C)c2ccccc2)cc1 (stereo not drawn) |  | inconclusive: 70.8 µM [inhibitor, single point] |
| Cc1cccc2sc(N(CCCN(C)C)C(=O)c3ccc4ncsc4c3)nc12 |  | active: 31.6 µM |
| O=C1CC(=O)N(CCc2ccc(F)cc2)C(=O)N1 | inconclusive: -53.4% [inhibitor] |  |
| COc1ccc(N2CCN(C(=O)COC(=O)COc3cccc(C(F)(F)F)c3)CC2)cc1 |  | inconclusive: 25.1 µM [inhibitor, single point] |
| O=c1[nH]c(NCCCO)nc2c1C1(CCCC1)Cc1ccccc1-2 | inactive: 24.6% |  |
| COc1cccc(C2=Nn3c(nnc3-c3ccccc3O)SC2)c1 | inconclusive: -78.7% [inhibitor] |  |
| O=[N+]([O-])c1ccc(N2CCOCC2)cc1N1CCCCC1 | inactive: -40.6% [at 102 µM] |  |
| Cc1nn(C(=O)c2ccc(Cl)cc2)c(C)c1S(=O)(=O)N1CCCCCC1 | inactive: 20.6% |  |
| COc1cc(/C=N/Nc2snc(SC)c2C#N)ccc1O |  | inconclusive: 79.4 µM [inhibitor, single point] |
| CC(C)(C)c1ccc(OCC(=O)Nc2cccc(S(=O)(=O)NC3=NCCCCC3)c2)cc1 |  | inconclusive: 1.58 µM [inhibitor, partial curve, poor fit] |
| Cc1ccc(NS(=O)(=O)c2coc(C(N)=O)c2)cc1F | inactive: 8.52% [at 102 µM] |  |
| COc1cc(NS(=O)(=O)c2ccc(NC(=S)NC(=O)c3ccccc3)cc2)nc(OC)n1 |  | inconclusive: 12.6 µM [inhibitor, partial curve] |

| SMILES | activity, negative = inhibition | Potency |
| --- | --- | --- |
| O=C(NC1CC(=O)N(c2ccccc2)C1)c1ccc(S(=O)(=O)N2CCCCC2)cc1 (stereo not drawn) | inactive: 5.91% |  |
| Oc1c(CN2CCN(c3ccc(F)cc3)CC2)cc(Cl)c2cccnc12 |  | inconclusive: 39.8 µM [inhibitor, single point] |
| C=CCN1C=CC(=CC=C(C#N)C#N)C=C1 |  | inconclusive: 56.2 µM [inhibitor, single point] |
| O=C(COC(=O)c1ccccc1O)Nc1ccc(S(=O)(=O)N2CCCCC2)cc1 |  | inconclusive: 70.8 µM [inhibitor, partial curve, poor fit] |
| Cc1cccc(OCC(=O)N(Cc2ccc(C(C)(C)C)cc2)Cc2ccco2)c1 | inactive: 33.6% |  |
| C[C@@H]1C(=O)NC2=Nc3cccc(Cl)c3CN21 |  | inconclusive: 70.8 µM [inhibitor, partial curve] and inconclusive: 37.7 µM [inhibitor, partial curve, poor fit] |
| Cn1c(C(=O)N2CCOCC2)cc2c(=O)n3ccccc3nc21 | inactive: 85.1% [at 102 µM] |  |
| CCCSc1nsc(NC(=O)C(c2ccccc2)c2ccccc2)n1 |  | inconclusive: 12.6 µM [inhibitor, partial curve, poor fit] |
| C=CCn1c(C(C)NC(=O)c2cccs2)n[nH]c1=S (stereo not drawn) |  | active: 15.8 µM |
| CCOC(=O)N1CCN(Cc2nc3cc([N+](=O)[O-])ccc3n2C)CC1 | inactive: -0.607% [at 102 µM] |  |
| COCCNC(=S)N1CCN(C)CC1 |  | inconclusive: 3.98 µM [inhibitor, single point] |
| O=C(/C=C/c1cccs1)c1cc(Cl)ccc1O |  | active: 39.8 µM |
| COc1cc(OC)cc(C(=O)N2CCN(C(=O)COc3ccccc3)CC2)c1 | inactive: 4.77% |  |
| COC(=O)c1ccc(NS(=O)(=O)c2ccccc2)o1 |  | active: 39.8 µM |
| Cc1cccc(OCc2nnc(SCC(=O)c3c(N)n(C4CC4)c(=O)[nH]c3=O)o2)c1 |  | inconclusive: 56.2 µM [inhibitor, partial curve, poor fit] |
| O=C(CSc1nc2nc(-c3cccs3)cc(C(F)(F)F)c2c(=O)[nH]1)C(F)(F)F |  | active: 79.4 µM |
| CC(C)c1ccc(NC(=O)C(C)N(c2ccccc2)S(C)(=O)=O)cc1 (stereo not drawn) |  | inconclusive: 0.0794 µM [inhibitor, full curve, poor fit] |
| O=c1c2c(c(-c3ccccc3)nn1Cc1ccccc1)CCCC2 | inactive: 13.4% [at 102 µM] |  |
| Cc1cc(C(=O)CSc2nncs2)c(C)n1Cc1ccco1 |  | inconclusive: 50.1 µM [inhibitor, partial curve] |
| CCOc1cc(/C=N/Nc2nncc(-c3ccccc3)n2)ccc1O | inactive: -1.33% [at 102 µM] |  |
| Cc1ccc(C)c(CN2C(=O)c3ccccc3S(=O)(=O)c3ccc(C(=O)NCCCN4CCCC(C)C4)cc32)c1 (stereo not drawn) |  | inconclusive: 28.2 µM [inhibitor, partial curve, poor fit] |
| O=S(=O)(NN=C1CCCCC1)c1ccccc1 |  | inconclusive: 17.8 µM [inhibitor, full curve] |
| COC(=O)c1cc2sccc2n1Cc1nc(-c2ccc(OC)cc2)oc1C |  | inconclusive: 5.01 µM [inhibitor, full curve, poor fit] |

— PubChem BioAssay AID504332 (National Center for Advancing Translational Sciences (NCATS), 2011)
